Assay results: article PMC4336329 (PLoS ONE, 2015)
In all, about 310,000 compounds went through this assay and about 2,200 (0.71%) showed an effect of 50% or more. Effects have a minus sign here. The list shows a part of the results.

Molecular target: human ether-à-go-go-related gene (hERG) potassium channel (human, UniProt Q12809)
Test: primary screen, population patch clamp on CHO cells stably expressing hERG

Chain of human ether-à-go-go-related gene (hERG) potassium channel (Q12809 whole entry, looked up): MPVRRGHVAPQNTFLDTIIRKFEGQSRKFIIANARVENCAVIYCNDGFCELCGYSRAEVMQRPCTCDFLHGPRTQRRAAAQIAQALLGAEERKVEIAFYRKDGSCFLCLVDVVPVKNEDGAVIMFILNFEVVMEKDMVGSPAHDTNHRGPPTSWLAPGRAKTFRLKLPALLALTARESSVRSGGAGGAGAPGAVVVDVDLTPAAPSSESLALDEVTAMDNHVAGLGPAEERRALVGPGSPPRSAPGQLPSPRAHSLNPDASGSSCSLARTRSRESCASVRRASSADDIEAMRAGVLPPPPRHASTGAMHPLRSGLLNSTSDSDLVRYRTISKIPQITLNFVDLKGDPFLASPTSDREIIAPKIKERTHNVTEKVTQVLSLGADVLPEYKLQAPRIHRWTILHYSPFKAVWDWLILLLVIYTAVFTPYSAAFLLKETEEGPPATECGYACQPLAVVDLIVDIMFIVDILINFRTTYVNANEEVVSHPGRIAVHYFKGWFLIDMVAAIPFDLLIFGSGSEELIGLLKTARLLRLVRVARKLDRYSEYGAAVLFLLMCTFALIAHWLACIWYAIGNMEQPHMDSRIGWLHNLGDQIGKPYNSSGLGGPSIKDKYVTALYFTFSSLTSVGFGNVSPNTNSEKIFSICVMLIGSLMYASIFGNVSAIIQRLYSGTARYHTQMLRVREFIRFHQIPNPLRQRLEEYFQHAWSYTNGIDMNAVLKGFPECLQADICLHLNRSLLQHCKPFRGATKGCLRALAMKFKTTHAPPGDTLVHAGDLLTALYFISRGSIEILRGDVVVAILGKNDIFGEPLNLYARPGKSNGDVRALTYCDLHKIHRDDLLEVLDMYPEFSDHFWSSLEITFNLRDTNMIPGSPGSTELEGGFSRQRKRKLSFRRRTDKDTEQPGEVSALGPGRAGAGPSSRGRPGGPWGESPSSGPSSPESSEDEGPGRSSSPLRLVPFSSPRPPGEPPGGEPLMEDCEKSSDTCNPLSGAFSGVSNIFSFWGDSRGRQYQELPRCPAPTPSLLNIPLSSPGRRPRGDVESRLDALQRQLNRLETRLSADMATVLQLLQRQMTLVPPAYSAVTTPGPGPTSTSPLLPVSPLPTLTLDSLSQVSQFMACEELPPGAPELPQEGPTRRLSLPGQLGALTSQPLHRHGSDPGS

SMILES	hERG current change (%, negative = inhibition) at 1uM [%]
COc1ccc(NC(=O)Cn2cnc3c(cnn3-c3ccc(C)c(C)c3)c2=O)c(OC)c1	0.499
O=C(CSc1ccc(-c2ccco2)nn1)N1CCCCCC1	4.91
CC1CCCC(C)N1CCNC(=O)CCc1nnc2n(Cc3ccccc3)c(=O)c3ccccc3n12 (stereo not drawn)	-11.2
NC(=O)C(=O)NN=C1CCC(c2ccccc2)CC1 (stereo not drawn)	12.8
CCC(=O)N1CCc2cc(S(=O)(=O)CCC(=O)N3CCN(c4ccc(F)cc4)CC3)ccc21	5.02
COC(=O)CCC(=O)NC1CC(C)(C)Cc2c1cnn2-c1ccc(F)cc1 (stereo not drawn)	-8.41
COc1ccc(Cl)cc1N(C(C)C(=O)O)S(C)(=O)=O (stereo not drawn)	10
COc1cc(F)cc(C2=CC(=O)C[C@H](c3ccc(F)cc3)C2)c1	8.53
COc1ccc(NC(=O)[C@@H]2CCCN2C(=O)[C@@H]2Cc3ccccc3CN2C(=O)OC(C)(C)C)cc1	15.3
NC(=O)c1cccnc1	17.6
C/C(=N\NC(=O)C(C)Oc1ccc([N+](=O)[O-])cc1)c1ccccn1 (stereo not drawn)	3.15
Cc1ccc(C)c(OCc2cc(C(=O)N3CC[C@H](O)C3)no2)c1	16.8
CCc1nc2ccc(C(=O)NCCc3ccco3)cc2nc1CC	22.3
Cc1ccc(P(=O)(CC(=O)O)c2ccc(C)cc2)cc1	-6.62
COc1ccc(-c2ccc(SCC(=O)NCC3CCCO3)nn2)cc1OC (stereo not drawn)	15.9
O=C(CNC(=O)c1cccc(Cl)c1)N/N=C/c1cccnc1	16.3
COc1ccc(S(=O)(=O)N(Cc2ccccc2)Cc2nc(-c3ccccc3)no2)cc1	6.95
CCc1noc(C)c1C(=O)N1CCCC(C(=O)c2ccc(OC)c(F)c2)C1 (stereo not drawn)	5.78
O=C(Nc1nccs1)c1ccc(S(=O)(=O)NCc2cccs2)cc1	0.141
CN(C)CCCNC(=O)/C=C/c1ccc(OCc2c(F)cccc2Cl)cc1	-0.257
COc1ccc(NC(=O)CN2CCC(C(=O)c3ccc(C)cc3)CC2)c(OC)c1	-0.246
O=C(CCNc1n[nH]c(=O)[nH]c1=O)N/N=C\c1ccc(Br)cc1	1.58

SMILES	hERG current change (%, negative = inhibition) at 1uM [%]
Cn1cccc1/C=C1\CCC/C(=C\c2cccn2C)C1=O	2.7
O=C(Nc1ccc(Cl)cc1C(=O)Nc1ccncc1)c1ccco1	-13
CCC(C)(C)NC(=O)c1ccc2c(c1)N(CC(=O)OC)C(=O)C(C)(C)O2	-8.97
O=C(C1=C(O)C(=O)N(CCN2CCOCC2)C1c1ccccn1)c1cccs1 (stereo not drawn)	15
CC(C)CC(c1nnnn1C(C)C)N1CCN(c2cccc(Cl)c2)CC1 (stereo not drawn)	11.1
CCOC(=O)CC(=O)Nc1ccc(C)cc1	6.4
O=C(Nc1cccc([N+](=O)[O-])c1)c1cc(S(=O)(=O)Nc2ccccn2)ccc1Cl	-6.58
CC(C)Cc1nnc(NC(=O)C2CCN(C(=O)c3ccc(F)cc3)CC2)s1	-3.88
Cc1nc(CN(C)C(=O)CC2C(=O)NCCN2Cc2ccc(F)cc2)cs1 (stereo not drawn)	15.5
O=C(Cn1c(=O)oc2cc(S(=O)(=O)NCc3ccccc3)ccc21)NCc1ccco1	12.2
CC(C)CNC(=O)Cn1nc(C(F)(F)F)c2c1CCCC2	4.01
CC(C)(C)c1ccc(C(=O)Nc2ccc3c(c2)C(=O)NC3=O)cc1	17
COc1cc([C@@H]2CC=C(C(=O)O)[C@H](c3ccccc3)N2S(=O)(=O)c2ccc(C)cc2)cc(OC)c1OC	17
COc1cc2cc(CN(Cc3ccc4c(c3)OCO4)C(=O)c3ccco3)c(=O)[nH]c2cc1OC	-9.98
O=C(Nc1ccc(NC(=O)c2sc3ccccc3c2Cl)cc1Cl)c1ccco1	5.48
CCOC(=O)c1cnc2ccccc2c1NCCO	-15.2
CCn1c(SCC(N)=O)nnc1C(C)C	15.1
Cc1ccccc1N(CC(=O)N/N=C/c1cc(Br)c(C)o1)S(C)(=O)=O	0.398
COc1ccc(-c2nc(SC(C)C(=O)Nc3ccc(NC(C)=O)cc3)n[nH]2)cc1 (stereo not drawn)	7.74
CC(=O)N1CCOc2ccc(S(=O)(=O)NCCc3ccc(Cl)cc3)cc21	15.4
CC(C)(C)NC(=O)CCN(/N=C/c1ccccc1F)C1=NS(=O)(=O)c2ccccc21	14.2
CCOc1cc(C(=O)Nc2cc3c(cc2N2CCCC2)n(C)c(=O)n3C)cc(OCC)c1OCC	9.85

SMILES	hERG current change (%, negative = inhibition) at 1uM [%]
CC1CCCC(C)N1C(=O)COC(=O)c1cc(S(=O)(=O)N2CCOCC2)ccc1Cl (stereo not drawn)	-3.42
Cc1cnc(CNC(=O)CC2C(=O)NCCN2Cc2ccccc2C(F)(F)F)cn1 (stereo not drawn)	13.7
O=C(CSc1nc2ccccc2n1Cc1ccc(Cl)cc1)N/N=C/c1ccc(C(=O)O)cc1	8.83
COc1ccccc1C/C(N)=N/OC(=O)COc1cc(C)cc(C)c1C	-0.621
CC(C)(C)N(Cc1ccccc1)C(=O)CSc1ncn[nH]1	14.2
OCCC1CN(Cc2nc3ccccc3s2)CCN1C1CCCC1 (stereo not drawn)	-15.2
N=c1c2c(-c3ccccc3)c(-c3ccccc3)oc2ncn1CCCN1CCOCC1	-84.5
Cc1cc(C(=O)COc2ncnc3sccc23)c(C)n1C1CC1	13.4
COc1ccc(CCNCc2ccc(Br)cc2)cc1OC.O=C(O)C(=O)O	-40.5
C=C(C)COc1ccc2oc(C)c(C(=O)OCCOC)c2c1	20.6
CC(=O)Nc1ccc(C(=O)Cn2nnc3ccccc3c2=O)cc1	7.25
CCC(=O)N1CCN(c2cc(NCC3CCCO3)c(F)cc2[N+](=O)[O-])CC1 (stereo not drawn)	20.9
CN(C)Cc1c(O)ccc2c(=O)c(-c3ccc(Cl)cc3)coc12	11.7
COc1ccccc1C(=O)N1CCN(c2nc3cc(C)c(C)cc3cc2C#N)CC1	10.5
Cc1cccc(Nc2ncc3c(n2)CC(C)CC3=O)c1 (stereo not drawn)	7.18
O=C(CSc1cccc[n+]1[O-])NCC1CCCCC1	37.7
COc1ccccc1/C=C/C=C1\Oc2c(ccc(O)c2CN2CCN(CCO)CC2)C1=O	10
COc1cc(NC(=O)CN2C(=O)c3ccccc3S2(=O)=O)c(OC)cc1Cl.Cl	4.94
COC(=O)C(C)Nc1cccc(Br)c1 (stereo not drawn)	9.09
CCS(=O)(=O)Nc1ccccc1C(N)=O	19.6
Br.C=CCN1C(c2ccc(OCC)cc2)=CS/C1=C(\C#N)c1nnc2n1CCCCC2	-1.79
Cc1ccc2c(C)ccc(O)c2n1	11.6

SMILES	hERG current change (%, negative = inhibition) at 1uM [%]
Cc1ccc(C(=O)NCC(=O)NCC(c2cccs2)N2CCOCC2)cc1C (stereo not drawn)	-1.02
Cc1cc(=O)[nH]c2nnnn12	9.97
CCOc1ccc2[nH]c(=O)c(CN(CCCN3CCOCC3)Cc3nnnn3Cc3ccc(OC)cc3)cc2c1	6.01
CC(=NCc1ccco1)c1c(C(F)(F)F)[nH]n(-c2nc3ccccc3s2)c1=O	1.02
COc1ccc(OC)c(S(=O)(=O)N2c3cc(F)ccc3CCC2C)c1 (stereo not drawn)	11.8
O=C(O)CN1C(=O)/C(=C\c2ccccc2OCc2ccc(Cl)cc2)SC1=S	17.7
N#CC1=C(N)Oc2cc3ccccc3cc2C1c1cccs1 (stereo not drawn)	15.5
Cc1ccc(C(=O)Nc2nnc(S(=O)(=O)N3CCCCCC3)s2)cc1	4.28
O=C(CSc1nc2[nH]ncc2c(=O)[nH]1)NCc1ccc(F)cc1	13.2
Cn1c(N)c(C(=O)CSc2nc3ccccc3[nH]2)c(=O)n(C)c1=O	5.76
O=C(C1CCC(=O)N(C2CCCC2)C1)N1CCN(c2ccc(Cl)cc2)CC1 (stereo not drawn)	-15.6
COc1ccccc1NC(=O)Nc1cccc(NC(C)=O)c1	12
O=S(=O)(Nc1ccon1)c1ccc(Br)cc1	14
Cc1cccc(-c2nc(C#N)c(N3CCCCCC3)o2)c1	10.7
CCOC(=O)C1=C(C)Nc2ncnn2C1c1ccc(N(C)C)cc1 (stereo not drawn)	0.518
CCN(CC)c1ccc(CNc2nc3ccccc3n2CCN2CCOCC2)cc1	-76.1
C[C@]12CC[C@@H]3c4ccc(O[C@@H]5O[C@H](C(=O)[O-])[C@@H](O)[C@H](O)[C@H]5O)cc4CC[C@H]3[C@@H]1C[C@@H](O)[C@@H]2O.[Na+]	18
COc1ccc(-n2ccnc2SCC(=O)NCc2ccco2)c(OC)c1	6.29
O=C(O)CSc1cc(NS(=O)(=O)c2ccc(Br)cc2)c2ccccc2c1O	11.8
Cc1cccc(NC(=S)N2CCn3cccc3C2c2cccnc2)c1 (stereo not drawn)	-0.473
Cc1noc(C)c1COc1ccc(C(=O)NCCc2ccc(F)cc2)cc1	17.2
